Test results taken from patent US20220265579A1, “COMPOSITION FOR PREVENTING OR TREATING CARDIO-CEREBROVASCULAR DISEASE COMPRISING AUTOPHAGY ACTIVATOR AS ACTIVE INGREDIENT” (VASTHERA CO. LTD., priority 2019, published 2022).

Key:
[1] = test system: LC3-II and p62; experiment: Time-dependent immunoblotting of LC3-II and p62 (autophagic flux); conditions: 24 to 72 hours, FIG. 1D
[2] = test system: LC3-II; experiment: LC3-II levels in presence and absence of lysosomal protease inhibitor E64D; conditions: FIG. 1E
[3] = test system: HUVECs; experiment: mRFP-GFP double-tagged LC3 fluorescence (autophagic flux); format: cell-based; conditions: FIG. 1F
Description: In order to visualize the change from neutral autophagosomes to acidic autophagosomes based on the different pH stabilities between mRFP-LC3 and GFP-LC3, LC3 double tagged with mRFP/mCherry-GFP may be used. The fluorescence of mRFP is relatively stable in rososomes, but the fluorescence of GFP is unstable in acidic substances. […]

[4] = test system: AMPK; experiment: Immunoblotting of AMPK phosphorylation (p-AMPK/AMPK); format: cell-based; conditions: compared to rapamycin, FIG. 2A/2B
[5] = test system: autophagic vacuoles; experiment: MDC fluorescence staining of autophagic vacuoles; format: cell-based; conditions: FIG. 1C
[6] = test system: lysosomes; experiment: Acridine orange staining of lysosomal activity; format: cell-based; conditions: FIG. 1G
Description: In an Example, lysosomal activity was investigated using acridine orange staining, which is an analytical method for investigating the role and reliability of lysosomes. […]

[7] = test system: EGFP-LC3 puncta; experiment: EGFP-LC3 puncta with pathway inhibitors; format: cell-based; conditions: co-treatment with Compound C, FIG. 2C
[8] = test system: mTOR/S6K signaling; experiment: Immunoblotting of mTOR/S6K signaling; format: cell-based; conditions: FIG. 2B
[9] = test system: LC3; experiment: LC3 immunofluorescence staining for autophagy induction; format: cell-based; conditions: 0.1 μM, 2 μM or 5 μM, FIG. 1B

Compound | levels of LC3-II and p62 over time [1] | LC3-II level with versus without E64D [2] | R value (GFP/mRFP fluorescence) [3] | p-AMPK/AMPK ratio / AMPK phosphorylation [4] | LC3 expression [5] | density of acridine orange (lysosomal activity) [6] | EGFP-LC3 puncta with Compound C [7] | phosphorylation of S6K [8] | induced amount of LC3 in the cytoplasm [9]
CO/C1=C\C(C)=C\[C@@H](C)[C@@H](O)[C@@H](C)C/C(C)=C/C=C/[C@H](OC)[C@@H]([C@@H](C)[C@@H](O)[C@H](C)[C@@]2(O)C[C@@H](O)[C@H](C)[C@@H](C(C)C)O2)OC1=O [bafilomycin A] | increase within 24 hours and the high levels of the two types of proteins are maintained during the post-treatment time of 72 hours | the expression level of LC3-II is similar regardless of the presence or absence of E64D | 0.943 | – | – | – | – | – | –
CNC1CC(c2ccc(Cl)c(Cl)c2)c2ccccc21 (stereo not shown) [indatraline] | – | – | – | relatively high p-AMPK/AMPK | express LC3 | – | – | – | –
CN[C@H]1CC[C@@H](c2ccc(Cl)c(Cl)c2)c2ccccc21 [sertraline] | increase rapidly for 24 hours, peak at the 48th hour, and then decrease from the 72th hour | the LC3-II level further increases in the case of being treated with the pharmaceutical composition and E64D together | 0.517 | – | express LC3 | significantly increases the density of acridine orange | remarkably decrease | decreasing the phosphorylation level of mTOR and its downstream S6K | LC3 is induced in the cytoplasm in proportion to the amount of sertraline administered
